In the BET-seq Pho4 binding data (Le et al. 2018):
This is one part of the list. The energies were worked out here from pooled read counts, against the library average; single values are noisy.

Target: T1, Pho4 (S. cerevisiae) (UniProt P07270)
T1 sequence: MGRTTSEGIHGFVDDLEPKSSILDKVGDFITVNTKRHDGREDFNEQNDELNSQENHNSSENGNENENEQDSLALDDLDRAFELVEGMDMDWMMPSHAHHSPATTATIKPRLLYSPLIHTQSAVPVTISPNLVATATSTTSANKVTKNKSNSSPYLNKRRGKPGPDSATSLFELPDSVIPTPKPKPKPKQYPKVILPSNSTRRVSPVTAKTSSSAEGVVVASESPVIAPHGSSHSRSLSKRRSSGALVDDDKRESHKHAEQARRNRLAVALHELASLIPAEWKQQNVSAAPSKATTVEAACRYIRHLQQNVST
Test: relative binding free energy (BET-seq); higher = weaker binding
Conditions: reference: library average

Sequence | relative binding free energy
GTGTTCACGTGGAAGT | 1.63 kJ/mol
GGGAACACGTGAATTG | 1.3 kJ/mol
ATCATCACGTGGAAGG | 0.669 kJ/mol
GGATTCACGTGTGTAA | 1.3 kJ/mol
AGATTCACGTGATCGG | 1.3 kJ/mol
TAGGGCACGTGCGTAA | -0.795 kJ/mol
GTAAACACGTGTTTGG | 0 kJ/mol
TAAGGCACGTGGGCTT | -0.962 kJ/mol
TTGCTCACGTGGATGG | 0.335 kJ/mol
TTTAGCACGTGGAATA | -0.293 kJ/mol
TGTTGCACGTGAGTGA | 1.21 kJ/mol
TGTTTCACGTGACTTG | 0.92 kJ/mol
TTTTTCACGTGCATGT | 0.879 kJ/mol
TTTTCCACGTGGAATT | 0.586 kJ/mol
ATGGCCACGTGAGAGG | 0.669 kJ/mol
GTAGGCACGTGATGCT | -0.0837 kJ/mol
TTGCTCACGTGGGCTA | 0.46 kJ/mol
AGTTTCACGTGGGCTA | 0.628 kJ/mol
GTGGGCACGTGCTAGA | -0.0418 kJ/mol
AAAAGCACGTGGTAGT | -0.669 kJ/mol
ACGGTCACGTGTGGGA | 0.46 kJ/mol
TAGGTCACGTGTCAAG | 1.09 kJ/mol
TTGGACACGTGAGCTT | 0.753 kJ/mol
GGTTGCACGTGCTGAG | -0.126 kJ/mol
GGAATCACGTGTTGCG | 0.669 kJ/mol

Sequence | relative binding free energy
TTCGTCACGTGGGACT | 0 kJ/mol
GGGTTCACGTGAGCGC | 1.42 kJ/mol
GTTCGCACGTGTGTCG | -0.0837 kJ/mol
CGTAACACGTGTGGGT | -0.167 kJ/mol
TATTTCACGTGGATGT | 1.09 kJ/mol
GTGAGCACGTGGTCAG | -0.795 kJ/mol
CTGGGCACGTGGGGAG | -0.962 kJ/mol
ATGCGCACGTGCGGTG | -0.962 kJ/mol
CATAGCACGTGGGAAG | -0.0837 kJ/mol
TGGGACACGTGTGACA | 0.46 kJ/mol
TGGTTCACGTGTACGA | 1.13 kJ/mol
GTTCGCACGTGTGGTC | 0.126 kJ/mol
AGGTGCACGTGCGTTG | -0.335 kJ/mol
TGGCGCACGTGTTTGT | -0.335 kJ/mol
AGTGTCACGTGCGGCG | -0.335 kJ/mol
TGGTTCACGTGAAAGG | 2.22 kJ/mol
AATTTCACGTGGTTGG | 1.42 kJ/mol
ATGTGCACGTGGAAGC | 0.502 kJ/mol
GTGGACACGTGAGGAT | 0.711 kJ/mol
AAGTGCACGTGTGAAT | 0 kJ/mol
TGATACACGTGCTGTT | 0.126 kJ/mol
ACGGACACGTGTGGGG | -0.126 kJ/mol
GATGGCACGTGGAATA | 0.0418 kJ/mol
AGCGTCACGTGTGAGG | 0.628 kJ/mol
GGGTGCACGTGGCTTG | -0.126 kJ/mol

Sequence | relative binding free energy
AACTGCACGTGTTGTT | -0.418 kJ/mol
ATGATCACGTGTTTGG | 0.251 kJ/mol
ATGTACACGTGTGGCG | 0.377 kJ/mol
GTTTGCACGTGTGATG | 0.544 kJ/mol
GTTTTCACGTGCGGAG | 1.13 kJ/mol
GGTATCACGTGGGGAG | 0.628 kJ/mol
TAATTCACGTGTGCTT | 1.17 kJ/mol
TAAATCACGTGAGGGG | 1.09 kJ/mol
AGAGGCACGTGGACGT | 0.209 kJ/mol
GTATACACGTGTTTAG | -0.377 kJ/mol
TATTTCACGTGGTCGG | 1 kJ/mol
TGGTGCACGTGGTAAT | 0.0418 kJ/mol
ATACGCACGTGGGTAT | -0.879 kJ/mol
GGGCGCACGTGGGGCG | -0.837 kJ/mol
CGTATCACGTGGGTTC | 0.167 kJ/mol
TTCTTCACGTGACGGT | 1.51 kJ/mol
CGGTCCACGTGAGATG | 2.22 kJ/mol
AGGGGCACGTGAAGTC | 0.377 kJ/mol
GCTCGCACGTGTGGTA | -0.0837 kJ/mol
TAGGGCACGTGATGCG | -0.251 kJ/mol
GTTGCCACGTGTAGGA | -0.251 kJ/mol
TTGTCCACGTGGCGAG | 0.293 kJ/mol
AGGAGCACGTGAGTTT | 0.669 kJ/mol
TTCCTCACGTGGTTTT | 0.753 kJ/mol
GATAGCACGTGTATGT | 0.209 kJ/mol

Sequence | relative binding free energy
CTTTACACGTGGGTCT | -0.0418 kJ/mol
TGCGTCACGTGCGGGC | 0.126 kJ/mol
TAACGCACGTGTGGGG | -0.209 kJ/mol
TTATACACGTGGAGCT | 0.628 kJ/mol
TGTTGCACGTGAATCT | 0.628 kJ/mol
ATTGGCACGTGGATAT | -0.293 kJ/mol
GTGAGCACGTGCTTGG | -0.628 kJ/mol
ATAGGCACGTGGCGGG | -0.837 kJ/mol
CGATGCACGTGAGTGT | 0.711 kJ/mol
TGATGCACGTGAGTTC | 0.586 kJ/mol
CGGTCCACGTGGTATG | -0.209 kJ/mol
TAACGCACGTGGTAGT | -0.837 kJ/mol
ATTCACACGTGATGGG | 0.586 kJ/mol
TACTTCACGTGGTGTT | 0.628 kJ/mol
TTTCGCACGTGAAAGT | 0.879 kJ/mol
CGGGTCACGTGGTGAC | 0.502 kJ/mol
GGGGGCACGTGAAAGA | 0.753 kJ/mol
TTAGTCACGTGGGCTC | 0.377 kJ/mol
AATGGCACGTGGAGGC | 0.586 kJ/mol
TACTACACGTGGTATG | -0.0418 kJ/mol
TGGGTCACGTGAATGT | 1.26 kJ/mol
CTTGGCACGTGTGCAG | -0.126 kJ/mol
GGGTACACGTGGGGTC | 0.669 kJ/mol
AGGGACACGTGTTAGG | 0.167 kJ/mol
GTTCGCACGTGTTTGT | 0.0837 kJ/mol

Sequence | relative binding free energy
CTTTACACGTGATTGG | 1.34 kJ/mol
CGGAGCACGTGAGGGT | 0.711 kJ/mol
TAGTACACGTGCATGG | 0 kJ/mol
AAGCACACGTGGTTGT | 0.293 kJ/mol
TATAGCACGTGTCTAT | -0.167 kJ/mol
GTTGACACGTGGGCGC | -0.377 kJ/mol
GTATGCACGTGTTTGC | 0.46 kJ/mol
TTCTGCACGTGATAGG | 0.126 kJ/mol
CAGGTCACGTGGTTTA | 0.502 kJ/mol
TGGATCACGTGGTTTT | 0.544 kJ/mol
GGGATCACGTGCGGTA | 0.879 kJ/mol
GTGATCACGTGGATCA | 1.13 kJ/mol
AGAGTCACGTGGTATG | -0.0418 kJ/mol
TGATGCACGTGCTGGG | -0.711 kJ/mol
TGTGTCACGTGTTTAG | 0.669 kJ/mol
AAGTTCACGTGCTAGT | 1.55 kJ/mol
GATAGCACGTGTTATT | 0.753 kJ/mol
TGCGGCACGTGTGTCG | 0.0837 kJ/mol
TTGAGCACGTGATTAA | 0.0418 kJ/mol
AGTAACACGTGAATAT | 1.72 kJ/mol
CAGGTCACGTGATTGT | 0.502 kJ/mol
AGTTTCACGTGAGCTA | 2.22 kJ/mol
TGCTGCACGTGGCTGG | 0.126 kJ/mol
TCGGTCACGTGTATAA | 1 kJ/mol
TGTCCCACGTGTGTTT | -0.251 kJ/mol

Sequence | relative binding free energy
GAGTTCACGTGGGGCC | 0.879 kJ/mol
GTGGGCACGTGGCTCG | -0.502 kJ/mol
AGGTGCACGTGTGTTC | -0.0418 kJ/mol
ATGGGCACGTGGACAT | -0.669 kJ/mol
TTGTTCACGTGTGCTC | 1.34 kJ/mol
CCTGTCACGTGTAGGG | 0.377 kJ/mol
GGATGCACGTGGTGCT | -0.586 kJ/mol
GTGGGCACGTGAATAA | 0.586 kJ/mol
GTTAACACGTGAGGTT | 1.21 kJ/mol
TCTGGCACGTGGGGAA | -0.711 kJ/mol
CTATTCACGTGTAAGG | 0.962 kJ/mol
AAAGGCACGTGTTGCT | -0.502 kJ/mol
GCGGGCACGTGAGGAT | 1.3 kJ/mol
TGTATCACGTGCGTGT | 0.377 kJ/mol
TACAACACGTGTTGGT | -0.167 kJ/mol
GGTGCCACGTGGGGGA | -0.711 kJ/mol
TCGTGCACGTGCGGTG | -0.377 kJ/mol
AGTTTCACGTGCGGTT | 0.962 kJ/mol
GGAGGCACGTGATTGG | 0.0837 kJ/mol
TTATTCACGTGACATT | 1.17 kJ/mol
AGTGTCACGTGTTGAT | 0.0837 kJ/mol
